# Data reported in PMC6919601, “Identification of Plasmodium dipeptidyl aminopeptidase allosteric inhibitors by high throughput screening” (PLoS ONE, 2019).
# Where “and” joins values, the source holds several entries; their conditions need not be identical. Equal entries are not always repeated. In all, about 110,000 compounds went through this assay and about 230 (0.21%) showed an effect of 50% or more. The list shows a part of the results.
# Target: DPAP1 (Plasmodium falciparum, UniProt Q8IIJ9)
# Sequence (Q8IIJ9 whole entry, looked up): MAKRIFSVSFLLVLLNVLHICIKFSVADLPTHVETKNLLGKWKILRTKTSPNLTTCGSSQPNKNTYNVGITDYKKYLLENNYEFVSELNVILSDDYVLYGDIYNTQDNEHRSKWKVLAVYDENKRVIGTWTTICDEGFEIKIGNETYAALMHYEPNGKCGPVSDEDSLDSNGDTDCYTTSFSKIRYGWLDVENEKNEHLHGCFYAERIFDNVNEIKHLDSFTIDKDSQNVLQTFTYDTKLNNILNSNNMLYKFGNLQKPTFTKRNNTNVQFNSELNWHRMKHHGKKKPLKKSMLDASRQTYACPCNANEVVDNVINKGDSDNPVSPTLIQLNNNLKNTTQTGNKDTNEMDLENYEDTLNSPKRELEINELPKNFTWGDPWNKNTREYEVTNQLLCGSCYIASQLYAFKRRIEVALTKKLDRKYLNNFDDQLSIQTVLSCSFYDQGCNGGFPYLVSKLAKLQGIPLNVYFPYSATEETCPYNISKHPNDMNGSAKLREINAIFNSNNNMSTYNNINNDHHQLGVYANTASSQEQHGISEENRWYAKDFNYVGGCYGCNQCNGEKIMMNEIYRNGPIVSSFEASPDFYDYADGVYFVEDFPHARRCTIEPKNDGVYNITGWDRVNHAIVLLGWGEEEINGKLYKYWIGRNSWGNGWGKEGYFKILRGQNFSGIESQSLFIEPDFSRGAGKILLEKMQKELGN
# Experiment: primary screen, percent inhibition; read by cleavage of a fluorogenic dipeptide substrate; higher = more effect of the substance
# Parameters: species or system P. falciparum D10 trophozoite lysates; single well
# 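Note: 30 min substrate incubation versus DMSO and 10 µM JCP410 controls.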
row,SMILES,% Inhibition @ 10 uM
1,COc1ccc(-c2nc(SCC(=O)O)nc(O)c2C#N)cc1,-3.9%
2,COc1ccc(OC)c(NC(=O)C(C)Oc2ccccc2C)c1 (stereo not shown),-2.19%
3,N#CC1=C(N)Oc2c(oc(CO)cc2=O)C1c1c[nH]nc1-c1ccc(F)cc1 (stereo not shown),0.0719%
4,Oc1ccc(Nc2nc(Nc3ccc(O)cc3)nc(N3CCOCC3)n2)cc1,-4.11%
5,CN1C(C(=O)N2CCc3ccccc3C2)=CC(c2ccc(F)cc2)=NS1(=O)=O,2.32%
6,CC(=O)c1ccc(N2CCOCC2)c(F)c1,-3.88%
7,CCOc1ccc(C(=O)Nc2ccc(C(C)C)cc2)cc1,-9.68%
8,CCNC(=S)N(CCc1c(C)[nH]c2ccc(F)cc12)Cc1ccncc1,0.121%
9,COC(=O)c1c(-c2ccccc2Cl)csc1NC(=O)CCC(=O)O,-2.9%
10,Cc1cc(-c2ccccc2)nc2cc(C(=O)N3CCCCC3)nn12,-2.53%
11,O=C(CSCC(=O)Nc1ccc2c3c(cccc13)CC2)NCCc1ccccc1,-0.496%
12,Cc1ccc2c(c1)-c1c(cnn1CC(=O)NCCc1ccc(S(N)(=O)=O)cc1)CO2,-1.53%
13,c1ccc(C(c2ccccc2)N2CCN(C(c3ccccc3)c3ccccc3)CC2)cc1,-3.98% and -0.239%
14,c1ccc(Sc2ccccc2CN2CCCC2)cc1,2.38%
15,CCCCN1CCCCC1C(=O)Nc1c(C)cc(C)cc1C (stereo not shown),-2.77%
16,Cc1cc(N2N=C(c3ccc(Br)cc3)CC2c2ccccc2)nc(-c2ccccc2O)n1 (stereo not shown),-1.5%
17,COc1ccc(NS(=O)(=O)C[C@H](CCc2ccccc2)NC(=O)C2(NC(=O)c3ccc(-c4csc(N5CCN(C)CC5)n4)cc3)CCCCC2)cc1,15.9%
18,Cc1nnc(N2CCCC(C(=O)NCCCN3CCN(C)CC3)C2)c2nn(-c3ccccc3)c(C)c12 (stereo not shown),3.08%
19,COc1ccc(CCNC(=O)c2cncc(NS(=O)(=O)c3ccc(Cl)cc3)c2)cc1OC,-3.77%
20,CCCN1CCN(C(=O)c2oc3ccccc3c2NC(=O)C2CC2)CC1,-3.65%
21,CCOc1ccc2nc(NC(=O)c3cc(=O)c4cc(C)ccc4o3)sc2c1,0.248%
22,COc1cccc(S(=O)(=O)N2CCN(c3ccc(Cl)c(Cl)c3)CC2)c1,1.88%
23,c1ccc(Cc2nnc3sc(C4COc5ccccc5O4)nn23)cc1 (stereo not shown),1.54%
24,CCOC(=O)C1CCCN(Cc2cccc(Cl)c2)C1 (stereo not shown),-6.82%
25,CCn1c(C(=O)NCc2ccc(OC)cc2)cc2sccc21,-3.08%

row,SMILES,% Inhibition @ 10 uM
1,Cc1cccc(-c2nc(CS(=O)CC(=O)N3CCN(c4ccccn4)CC3)c(C)o2)c1 (stereo not shown),-8.65%
2,CC(C)/N=C/c1c(O)[nH]c2ccccc12,-3.74%
3,C=CCNC(=O)c1ccccc1Cl,5.91%
4,CC(C)CC(C(=O)NCC#N)c1cccc(-c2cccc([N+](=O)[O-])c2)c1 (stereo not shown),0.173%
5,CCOC(=O)c1c(NC(=O)CSc2ncnc3sc4c(c23)CCCC4)sc(C)c1C,-5.28%
6,COc1ccccc1C1CC(=O)NC(C)=C1C(=O)OCc1ccc2c(c1)OCO2 (stereo not shown),0.205%
7,CCN(CC)S(=O)(=O)c1cc(-c2nn3c(C)nnc3c3ccccc23)ccc1C,0.776%
8,Cc1ccc(-c2csc(/C(C#N)=C/c3ccccc3F)n2)cc1,5.01%
9,COc1ccc(OCCSc2nnnn2-c2ccccc2)cc1,1.25%
10,O=C(OCCCN1CCOCC1)c1ccc(O)cc1,3.47%
11,NC(=O)C1CCCN(Cc2ccc(F)cc2F)C1 (stereo not shown),-0.446%
12,O=C(NC1CCCCC1)C1CCCN(S(=O)(=O)N2CCCCC2)C1 (stereo not shown),-4.99%
13,CCCCNC(=O)NCCOC(=O)Nc1ccc(C)cc1,-11%
14,CCOC(=O)C1=C(CN2CCN(c3ncccn3)CC2)NC(=O)NC1c1cccc(OC)c1OC (stereo not shown),-1.3%
15,CC1CN(C(=O)CCCOc2ccc(Cl)cc2Cl)CC(C)O1 (stereo not shown),2.22%
16,O=C(O)CC(NC(=O)OCc1ccccc1)c1ccccc1 (stereo not shown),-7.08%
17,Cc1nonc1CC(=O)O,-1.07%
18,CC1(C)C/C(=C(\C#N)C(N)=O)CCO1,2.16%
19,CN(Cc1ccccc1)C(=O)Cn1nnc2sc3c(c2c1=O)CCC(C(C)(C)C)C3 (stereo not shown),-6.43%
20,Cc1ccc(OCC(=O)Nc2ccc(S(=O)(=O)Nc3ccc(F)cc3)cc2)cc1,3.35%
21,Cc1cccc2c1NC(=O)C2(c1c(C)n(C)n(-c2ccccc2)c1=O)c1c(C)n(C)n(-c2ccccc2)c1=O,-0.636%
22,CC1=C(C(=O)OCc2ccccc2)C(c2ccc(C)cc2)C2=C(O)CC(C)(C)CC2=N1 (stereo not shown),7.56%
23,CC(C)CCOc1ccc(S(=O)(=O)NCCOc2ccccc2)cc1C(N)=O,-4.42%
24,N#Cc1c(N)oc2nnc(-c3cccnc3)c-2c1-c1c(O)[nH]c2ccc(Br)cc12,-4.4%
25,Cc1cccc(OCC(=O)Nc2ccc(C(N)=O)cc2)c1,3.8%

row,SMILES,% Inhibition @ 10 uM
1,COc1ccc(/C(O)=C/C=N/c2ccc(O)cc2)cc1OC,-0.638%
2,COc1cc(C(=O)ON=C2C=CC(=O)C=C2)cc(OC)c1OC,0.146%
3,COc1ccc(-c2nn(C)c3sc(C(=O)NC(C)C)cc23)cc1OC,-2.29%
4,Nc1ccccc1C(=O)Nc1cc(C(=O)O)cc(C(=O)O)c1,-3.39%
5,O=C(CCc1nc(-c2ccc(Cl)cc2)no1)N1CCOCC1,-3.12%
6,c1ccc(C2=NCCn3cccc32)cc1,-4.75% and -2.03%
7,CCOc1ccc(C2C3=C(O)CC(C)(C)CC3=NC(C)=C2C(=O)Nc2cccc(C)n2)cc1 (stereo not shown),1.08%
8,C=CCOc1ccc(C(=O)N(Cc2ccc(Cl)cc2)Cc2ccco2)cc1,-5.91%
9,COc1cc(C(=O)N/C(=C/c2ccc(N(C)C)cc2)C(=O)O)cc(OC)c1OC,-4%
10,Cc1ccnc(NC(=O)C(C)N2C(=O)c3ccccc3C2=O)c1 (stereo not shown),-5.28%
11,CC(=O)/C=C/c1c(C)n(C)c2ccc([N+](=O)[O-])cc12,-3.13%
12,O=C(NCc1ccccc1)c1cc(C2CC2)[nH]n1,-6.42%
13,COc1cc(C)nc(Nc2nc(C)c3ccc(C)cc3n2)n1,-0.511%
14,COc1ccc(NC(=O)CN2C(=O)c3cccc4cccc2c34)cc1Cl,-0.949%
15,CC1=C(C(=O)OC2CCCC2)C(c2ccc(Cl)cc2)NC(=O)N1 (stereo not shown),1.57%
16,O=C(NC1CON=C1Br)OCC1c2ccccc2-c2ccccc21 (stereo not shown),-0.48%
17,O=C1c2ccc3c4c(ccc(c24)C(=O)N1Cc1cccnc1)C(=O)N(Cc1cccnc1)C3=O,-0.413%
18,COc1ccc(N2C(N)=C(C#N)C(c3ccc(F)cc3)C3=C2CC(C)(C)CC3=O)cc1 (stereo not shown),2.45%
19,O=C1CNC(=O)/C1=C/c1ccc(O)cc1,1.7%
20,Cc1ccc(/C=C(\NC(=O)c2ccccc2)C(=O)NCCC2=CCCCC2)o1,1.02%
21,C=CCOc1ccc(C2C(C(=O)c3ccc(OC)cc3)=C(O)C(=O)N2CCN(C)C)cc1 (stereo not shown),0.487%
22,COc1ccc(CN2CCC(N3CCCCC3)CC2)cc1Br,4.75%
23,CCn1cc(C2=NOC(C(=O)NCC34CC5CC(CC(C5)C3)C4)C2)c(C)n1 (stereo not shown),-8.58%
24,COc1ccccc1CNC(=O)c1nnc(-c2ccc3c(c2)OCO3)o1,-11.1%
25,CCOC(=O)c1sc(N2N=C(C)/C(=C\c3ccc(CC)s3)C2=O)nc1C,-0.85%

row,SMILES,% Inhibition @ 10 uM
1,CCOCCCNC(=O)CSc1c2c(nc3ccc(Cl)cc13)CCCC2,-8.9%
2,CCCCSc1nc(O)c2cnn(-c3ccc(F)cc3)c2n1,-0.363%
3,Cc1cccc(CNC(=O)CCCn2nc(C)c3c(C)n(-c4ccccc4)nc3c2=O)c1,-1.05%
4,CC1=C(C(=O)Nc2cccc(C)n2)C(c2ccc(Br)cc2)C2=C(O)CCCC2=N1 (stereo not shown),-4.64%
5,COc1ccc(C2=N/C(=C\c3cc(Br)ccc3OC)C(=O)O2)c(Cl)c1,4.22%
6,CCOC(=O)C1=C(C)N=c2s/c(=C/c3c[nH]c4ccccc34)c(=O)n2C1c1cccs1 (stereo not shown),-1.4%
7,COc1ccc(C2N(C(=O)CSc3ccccn3)CCN2S(=O)(=O)c2ccc(C)cc2)cc1 (stereo not shown),7.99%
8,Cc1ccc(/C=C2\SC(N3CCN(C)CC3)=NC2=O)cc1,4%
9,Cc1cccnc1NC(=O)c1cc2ccc3cccnc3c2[nH]1,3.11%
10,Cc1ccc(NC(=O)c2ccc(C(=O)Nc3ccc(C)cc3[N+](=O)[O-])cc2)c([N+](=O)[O-])c1,0.827%
11,Cc1ccc(CCNC(=O)CC/N=c2/c(N3CCCC3)c(O)c2=O)cc1,-7.29%
12,COc1ccc(C(=O)Nc2ccc(S(=O)(=O)N3CCCCC3)cc2)cc1Br,7.67%
13,COc1cccc(NC(=O)c2cc(OC)cc(OC)c2)c1,-3.26%
14,CCc1ccccc1NC(=O)CN(c1cc(OC)ccc1OC)S(C)(=O)=O,-3.78%
15,COc1c(C(=O)N[C@@H](CC(C)C)C(=O)NCC#N)csc1-c1ccccc1,1.71%
16,CC1CCC(NC(=O)C2CCN(C(=O)c3cc4sccc4n3C)CC2)CC1 (stereo not shown),-1.58%
17,Clc1ccc(-c2csc(Nc3ccc(Oc4ccccc4)cc3)n2)cc1,-4.03%
18,O=C(O)CCn1ccnc1,-2.91%
19,Cc1cc([N+](=O)[O-])ccc1NC(=O)COc1ccc(Cl)cc1Cl,-9.6%
20,CC(c1ccccc1)C1CC(=O)N(Cc2ccccc2)C1=O (stereo not shown),0.812%
21,CCCN(CCO)Cc1ccc(F)c(F)c1,1.62%
22,CCOc1ccc(CNS(=O)(=O)c2cc(-c3cc(C)no3)ccc2OC)cc1,-7.87%
